In the supplement of paper PMC12350171:
Synthetic gut communities (20 or 21 species) grown anaerobically with drug for 24 h at the dose given, then challenged with the named pathogen. Pathogen growth (luminescence, or colony counts for V. cholerae) or community OD578 as fold of untreated communities, mean of three; above 1 = more growth. No active / inactive call.

Assays:
[1] = tested on: Vibrio cholerae A1552 (community: Com20); experiment: pathogen growth (luminescence or CFU) in drug-pretreated community relative to untreated community (fold of untreated control); higher = more pathogen expansion
[2] = tested on: Klebsiella pneumoniae MKP103 (community: Com20); experiment: as above
[3] = tested on: Yersinia pseudotuberculosis YPIII (community: Com20); experiment: as above
[4] = tested on: Escherichia coli CFT073 (community: Com20); experiment: as above
[5] = tested on: Shigella flexneri 24570 (community: Com20); experiment: as above
[6] = tested on: Salmonella enterica Typhimurium (community: Com21 (Com20 + E. coli ED1a)); experiment: as above
[7] = tested on: Yersinia enterocolitica WA-314 (community: Com20); experiment: as above
[8] = tested on: Com20 synthetic gut community; experiment: Com20 community biomass OD578 after 24 h drug treatment relative to untreated (fraction of untreated control); higher = more community growth
[9] = tested on: Salmonella enterica Typhimurium in Com20; experiment: S. Typhimurium luminescence in drug-pretreated Com20 relative to untreated Com20 (fold of untreated control); higher = more pathogen expansion

CC(C)(C)c1ccc(C(O)CCCN2CCC(C(O)(c3ccccc3)c3ccccc3)CC2)cc1 (centres undefined) [Terfenadine]
Conditions	Com20 community biomass OD578, [8]	S. Typhimurium luminescence, [9]	pathogen growth, [1]	pathogen growth, [2]	pathogen growth, [3]	pathogen growth, [4]	pathogen growth, [5]	pathogen growth, [6]	pathogen growth, [7]
drug pretreatment concentration 10 µM	0.977	1.03	1.06	1.39	0.829	1.52	1.03	0.875	1.06
drug pretreatment concentration 20 µM	0.924	0.646	0.794	1.47	0.799	1.41	0.927	0.833	1.25
drug pretreatment concentration 40 µM	0.746	1.03	1.26	1.91	2.52	1.6	2	1.54	2.18
drug pretreatment concentration 80 µM	0.658	1.53	1.31	2.5	4.15	1.51	2.94	3.3	3.81
drug pretreatment concentration 100 µM	–	–	5.4	6.03	9.38	7.14	10.3	–	7.87
drug pretreatment concentration 160 µM	0.03	–	–	–	–	–	–	6.7	–

COc1cc(C(=O)NS(=O)(=O)c2ccccc2C)ccc1Cc1cn(C)c2ccc(NC(=O)OC3CCCC3)cc12 [Zafirlukast]
Conditions	Com20 community biomass OD578, [8]	S. Typhimurium luminescence, [9]	pathogen growth, [1]	pathogen growth, [2]	pathogen growth, [3]	pathogen growth, [4]	pathogen growth, [5]	pathogen growth, [6]	pathogen growth, [7]
drug pretreatment concentration 10 µM	1.03	0.606	0.788	1.08	0.247	2.82	1.33	0.533	0.661
drug pretreatment concentration 20 µM	1.02	0.455	0.88	1.76	0.225	2.49	1.28	1.61	0.905
drug pretreatment concentration 40 µM	0.935	0.472	1.01	0.902	0.065	1.92	0.381	1.28	0.145
drug pretreatment concentration 80 µM	0.848	0.431	0.779	1.05	0.159	1.8	0.486	1.24	0.155
drug pretreatment concentration 100 µM	–	–	1.04	0.891	0.136	1.79	0.322	–	0.23
drug pretreatment concentration 160 µM	0.887	0.506	–	–	–	–	–	1.53	–
